Structures can show the parent of a compound that is named as a salt. This is one part of the list. Repeats are few or missing, and single values can be far off.
What follows are molecules tested on Ov4Carbo (assay: log2 surviving fraction (library drug vs vehicle, or drug + carboplatin vs carboplatin alone; relative to plate median); ovarian cancer lines: OVCAR4 is platinum-sensitive and Ov4Carbo platinum-resistant; higher = more cell survival). Conditions: library drug concentration 10 µM; 7 days; carboplatin co-treatment 0 µM.

How did the log2 surviving fraction turn out when `C=C(c1ccc(C(=O)O)cc1)c1cc2c(cc1C)C(C)(C)CCC2(C)C` [Bexarotene] was run?
The log2 surviving fraction was -0.532.

With `CC(=O)O[C@]1(C(C)=O)CC[C@H]2[C@@H]3C=C(C)C4=CC(=O)CC[C@]4(C)[C@H]3CC[C@@]21C` [Megestrol Acetate] as the molecule, how does the log2 surviving fraction read?
The log2 surviving fraction was -1.51.

`CCC(C)n1ncn(-c2ccc(N3CCN(c4ccc(OCC5COC(Cn6cncn6)(c6ccc(Cl)cc6Cl)O5)cc4)CC3)cc2)c1=O` (stereo not given) [Itraconazole (Sporanox)] was tested. Which log2 surviving fraction did it give?
The log2 surviving fraction was 0.369.

With `CCOC(=O)c1ccc(N)cc1` [Benzocaine] as the molecule, how does the log2 surviving fraction read?
The log2 surviving fraction was -0.812.

With `O=c1oc2c(O)c(O)cc3c(=O)oc4c(O)c(O)cc1c4c23` [Ellagic acid] as the molecule, how does the log2 surviving fraction read?
The log2 surviving fraction was -0.18.

`CS(=O)(=O)Nc1ccc([N+](=O)[O-])cc1Oc1ccccc1` [Nimesulide] was tested. Which log2 surviving fraction did it give?
The log2 surviving fraction was -1.28.

With `CCOC(=O)N1CCC(=C2c3ccc(Cl)cc3CCc3cccnc32)CC1` [Loratadine] as the molecule, how does the log2 surviving fraction read?
The log2 surviving fraction was 0.556.

Which log2 surviving fraction does the source give for `CC1(C)S[C@@H]2[C@H](NC(=O)[C@H](NC(=O)N3CCNC3=O)c3ccccc3)C(=O)N2[C@H]1C(=O)O` [Azlocillin sodium salt] here?
The log2 surviving fraction was -0.409.

How did the log2 surviving fraction turn out when `CNC1CCCN(c2c(F)cc3c(=O)c(C(=O)O)cn(C4CC4)c3c2OC)C1` (stereo not given) [Balofloxacin] was run?
The log2 surviving fraction was -0.185.

With `CNCC[C@H](Oc1cccc2ccccc12)c1cccs1` [Duloxetine HCl (Cymbalta)] as the molecule, how does the log2 surviving fraction read?
The log2 surviving fraction was -3.64.

`CC(C)NCC(O)COc1cccc2[nH]ccc12` (stereo not given) [Pindolol] was tested. Which log2 surviving fraction did it give?
The log2 surviving fraction was 0.0881.

For `Cc1noc(NS(=O)(=O)c2ccc(N)cc2)c1C` [Sulfisoxazole], which log2 surviving fraction is on record?
Its log2 surviving fraction is 0.369.

With `NCCS` [Cysteamine HCl] as the molecule, how does the log2 surviving fraction read?
The log2 surviving fraction was -0.89.

How did the log2 surviving fraction turn out when `C[C@@H]1C[C@H]2[C@@H]3CCC4=CC(=O)C=C[C@]4(C)[C@@]3(F)[C@@H](O)C[C@]2(C)[C@@]1(O)C(=O)CO` [Dexamethasone] was run?
The log2 surviving fraction was -8.84.

For `Nc1ncn([C@@H]2O[C@H](CO)[C@@H](O)[C@H]2O)c(=O)n1` [Azacitidine (Vidaza)], which log2 surviving fraction is on record?
The log2 surviving fraction was -2.74.

`CCCC(=O)[O-].[Na+]` [Sodium butyrate] was tested. Which log2 surviving fraction did it give?
Its log2 surviving fraction is 1.29.

How did the log2 surviving fraction turn out when `CC(=O)N1CCN(c2ccc(OCC3COC(Cn4ccnc4)(c4ccc(Cl)cc4Cl)O3)cc2)CC1` (stereo not given) [Ketoconazole] was run?
Its log2 surviving fraction is -2.87.

`Nc1nnc(-c2cccc(Cl)c2Cl)c(N)n1` [Lamotrigine] was tested. Which log2 surviving fraction did it give?
Its log2 surviving fraction is -0.575.

How did the log2 surviving fraction turn out when `NCCS(=O)(=O)O` [Taurine] was run?
Its log2 surviving fraction is -2.08.

How did the log2 surviving fraction turn out when `CCCCCCNC(=O)n1cc(F)c(=O)[nH]c1=O` [Carmofur] was run?
The log2 surviving fraction was -2.63.

`CNS(=O)(=O)CCc1ccc2[nH]cc(C3CCN(C)CC3)c2c1` [Naratriptan HCl] was tested. Which log2 surviving fraction did it give?
The log2 surviving fraction was -1.52.

For `COc1cc(/C=C/C(=O)CC(=O)/C=C/c2ccc(O)c(OC)c2)ccc1O` [Curcumin], which log2 surviving fraction is on record?
The log2 surviving fraction was -1.11.

For `COc1c(C)c2c(c(O)c1C/C=C(\C)CCC(=O)OCCN1CCOCC1)C(=O)OC2` [Mycophenolate mofetil (CellCept)], which log2 surviving fraction is on record?
The log2 surviving fraction was -6.18.

`CC1=C(/C=C/C(C)=C/C=C/C(C)=C/C=C/C=C(C)/C=C/C=C(C)/C=C/C2=C(C)CCCC2(C)C)C(C)(C)CCC1` [Beta Carotene] was tested. Which log2 surviving fraction did it give?
Its log2 surviving fraction is 0.112.

`O=C[C@H](O)[C@@H](O)[C@H](O)CO` [Xylose] was tested. Which log2 surviving fraction did it give?
Its log2 surviving fraction is -0.315.

With `COc1cc(NS(=O)(=O)c2ccc(N)cc2)nc(OC)n1` [Sulphadimethoxine] as the molecule, how does the log2 surviving fraction read?
The log2 surviving fraction was -0.305.

`NCCc1c[nH]cn1` [Histamine Phosphate] was tested. Which log2 surviving fraction did it give?
The log2 surviving fraction was 1.16.

Which log2 surviving fraction does the source give for `COc1ccccc1OCC(O)CN1CCN(CC(=O)Nc2c(C)cccc2C)CC1` (stereo not given) [Ranolazine dihydrochloride] here?
The log2 surviving fraction was -0.157.

Which log2 surviving fraction does the source give for `C[C@](N)(Cc1ccc(O)c(O)c1)C(=O)O` [Methyldopa (Aldomet)] here?
The log2 surviving fraction was -0.72.

`c1ccc(C2CN3CCSC3=N2)cc1` (stereo not given) [Tetramisole HCl] was tested. Which log2 surviving fraction did it give?
Its log2 surviving fraction is 0.394.

How did the log2 surviving fraction turn out when `CC1(C)O[C@@H]2C[C@H]3[C@@H]4CCC5=CC(=O)C=C[C@]5(C)[C@@]4(F)[C@@H](O)C[C@]3(C)[C@]2(C(=O)CO)O1` [Triamcinolone Acetonide] was run?
Its log2 surviving fraction is 0.283.

`C[C@]12C=CC(=O)C=C1CC[C@@H]1[C@@H]2[C@@H](O)C[C@@]2(C)[C@H]1CC[C@]2(O)C(=O)CO` [Prednisolone (Hydroretrocortine)] was tested. Which log2 surviving fraction did it give?
The log2 surviving fraction was 0.977.

How did the log2 surviving fraction turn out when `NC(=O)c1cnccn1` [Pyrazinamide (Pyrazinoic acid amide)] was run?
The log2 surviving fraction was -0.112.

For `CN1C2=CC(=O)/C(=N\NC(N)=O)C=C2CC1S(=O)(=O)O` (stereo not given) [Carbazochrome sodium sulfonate], which log2 surviving fraction is on record?
Its log2 surviving fraction is -0.0695.

`[O-][n+]1ccccc1[S-].[O-][n+]1ccccc1[S-].[Zn+2]` [Pyrithione zinc] was tested. Which log2 surviving fraction did it give?
The log2 surviving fraction was -7.32.

`CCN(CC)CCOc1ccc(C(=C(Cl)c2ccccc2)c2ccccc2)cc1` [Clomifene citrate (Serophene)] was tested. Which log2 surviving fraction did it give?
Its log2 surviving fraction is -3.92.

How did the log2 surviving fraction turn out when `COC(=O)[C@H](c1ccccc1Cl)N1CCc2sccc2C1` [Clopidogrel (Plavix)] was run?
Its log2 surviving fraction is -0.263.

`Oc1c(Br)cc(Br)c2cccnc12` [Broxyquinoline] was tested. Which log2 surviving fraction did it give?
Its log2 surviving fraction is -0.977.

`NC(=O)c1ncn([C@@H]2O[C@H](CO)[C@@H](O)[C@H]2O)c1N` [Acadesine] was tested. Which log2 surviving fraction did it give?
Its log2 surviving fraction is 0.717.

For `CCCSc1ccc2[nH]c(NC(=O)OC)nc2c1` [Albendazole (Albenza)], which log2 surviving fraction is on record?
The log2 surviving fraction was -5.02.
